Data published in the supplement of paper PMC10037445.
The full ranking holds about 2,900 compounds; the median of “NF-kB SEAP reporter activity, fold change vs agonist alone” is about 0.99, and the highest 2% start at about 2.6. The list shows a part of the results.

Columns and labels:
[1] = tested on: RAW-Dual; test: NF-kB SEAP reporter activity, fold change vs agonist alone; cytotoxicity flag (confluency mask): not cytotoxic; higher = enhanced NF-kB activity
Method in brief: (§1)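 Reporter activity is given as fold change relative to agonist-alone wells. To measure it, 50 nL of library stock was pin-tooled onto RAW-Dual macrophages (50,000 cells/well, DMEM, 384-well plates), a PRR agonist followed 1 h later, and cells stayed at 37 °C, 5% CO2. Twenty hours on, supernatant was assayed for IRF (QuantiLuc luminescence) and NF-κB (QuantiBlue, 620 nm absorbance), and wells under 70% of agonist-control IncuCyte confluency in both mask sets were marked cytotoxic.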

[2] = tested on: RAW-Dual; test: NF-kB SEAP reporter activity, fold change vs agonist alone; higher = enhanced NF-kB activity; conditions: library stock concentration (final ~1000-fold dilution): 10 mM
Method in brief: as §1

[3] = tested on: RAW-Dual; test: NF-kB SEAP reporter activity, fold change vs agonist alone; cytotoxicity flag (confluency mask): cytotoxic (confluency <70% of control); higher = enhanced NF-kB activity
Method in brief: as §1

[4] = agonist: ODN 1826 (TLR9) 0.5 ug/mL
[5] = agonist: Pam2CSK4 (TLR2/6) 0.1 ug/mL
[6] = agonist: Pam3CSK4 (TLR2/1) 0.1 ug/mL
[7] = cytotoxicity flag (confluency mask): not cytotoxic, agonist: Imiquimod (TLR7) […]
[8] = cytotoxicity flag (confluency mask): not cytotoxic, agonist: MPLA (TLR4) […]
[9] = cytotoxicity flag (confluency mask): cytotoxic (confluency <70% of control), agonist: Imiquimod (TLR7) […]
[10] = cytotoxicity flag (confluency mask): cytotoxic (confluency <70% of control), agonist: MPLA (TLR4) […]

For `Cc1nc(-c2ccc(OCC(C)C)c(C#N)c2)sc1C(=O)O` (library stock concentration (final ~1000-fold dilution): 10 mM), the “NF-kB SEAP reporter activity” value ([1]; agonist: LPS (TLR4) 0.1 ug/mL) was 1.09, the “NF-kB SEAP reporter activity” value [1, 4] was 1.26 and the “NF-kB SEAP reporter activity” value [1, 5] was 1.13. The “NF-kB SEAP reporter activity” value [1, 6] was 1.35.

With `Cc1nc(-c2ccc(OCC(C)C)c(C#N)c2)sc1C(=O)O` the “NF-kB SEAP reporter activity” value [2, 7] was 1.1 and the “NF-kB SEAP reporter activity” value [2, 8] was 1.04.

For `CCCCc1ccc(O)cc1O` (library stock concentration (final ~1000-fold dilution): 10 mM), the “NF-kB SEAP reporter activity” value ([1]; agonist: LPS (TLR4) 0.1 ug/mL) was 1.05, the “NF-kB SEAP reporter activity” value [1, 4] was 0.852 and the “NF-kB SEAP reporter activity” value [1, 5] was 0.993. For the same molecule, the “NF-kB SEAP reporter activity” value [1, 6] was 1.14.

`CCCCc1ccc(O)cc1O` was tested, and the “NF-kB SEAP reporter activity” value [2, 8] was 1.17.

In the case of `CCOP(=O)(OCC)C(=Cc1cc(C(C)(C)C)c(O)c(C(C)(C)C)c1)P(=O)(OCC)OCC`, the “NF-kB SEAP reporter activity” value [2, 7] is reported as 1.13 and the “NF-kB SEAP reporter activity” value [2, 8] is reported as 1.52.

For `CCOP(=O)(OCC)C(=Cc1cc(C(C)(C)C)c(O)c(C(C)(C)C)c1)P(=O)(OCC)OCC` (library stock concentration (final ~1000-fold dilution): 10 mM), the “NF-kB SEAP reporter activity” value ([1]; agonist: LPS (TLR4) 0.1 ug/mL) was 1.35, the “NF-kB SEAP reporter activity” value [1, 4] was 1.27 and the “NF-kB SEAP reporter activity” value [1, 5] was 0.899. The “NF-kB SEAP reporter activity” value [1, 6] was 0.793.

In the case of `Cc1cc2c(F)c(Oc3ncnn4cc(OCC(C)OC(=O)C(C)N)c(C)c34)ccc2[nH]1` (configuration not stated), the “NF-kB SEAP reporter activity” value [2, 9] is reported as 1.98 and the “NF-kB SEAP reporter activity” value [2, 10] is reported as 1.72.

`Cc1cc2c(F)c(Oc3ncnn4cc(OCC(C)OC(=O)C(C)N)c(C)c34)ccc2[nH]1` (configuration not stated) (library stock concentration (final ~1000-fold dilution): 10 mM) was tested, and the “NF-kB SEAP reporter activity” value ([3]; agonist: LPS (TLR4) 0.1 ug/mL) was 1.52, the “NF-kB SEAP reporter activity” value [3, 4] was 0.94 and the “NF-kB SEAP reporter activity” value [3, 5] was 0.759. The “NF-kB SEAP reporter activity” value [3, 6] was 1.13.

In the case of `Cc1ccc2c(=O)c3cccc(CC(=O)O)c3oc2c1C`, the “NF-kB SEAP reporter activity” value [2, 7] is reported as 0.955 and the “NF-kB SEAP reporter activity” value [2, 8] is reported as 0.964.

With `Cc1ccc2c(=O)c3cccc(CC(=O)O)c3oc2c1C` (library stock concentration (final ~1000-fold dilution): 10 mM) the “NF-kB SEAP reporter activity” value ([1]; agonist: LPS (TLR4) 0.1 ug/mL) was 1.98, the “NF-kB SEAP reporter activity” value [1, 4] was 1.09 and the “NF-kB SEAP reporter activity” value [1, 5] was 1.65. The “NF-kB SEAP reporter activity” value [1, 6] was 1.45.

For `CC(C)(c1ccc(OCC(O)CO)cc1)c1ccc(OCC(O)CCl)cc1` (configuration not stated) (library stock concentration (final ~1000-fold dilution): 10 mM), the “NF-kB SEAP reporter activity” value ([1]; agonist: LPS (TLR4) 0.1 ug/mL) was 0.908, the “NF-kB SEAP reporter activity” value [1, 4] was 0.823 and the “NF-kB SEAP reporter activity” value [1, 5] was 0.857. The “NF-kB SEAP reporter activity” value [1, 6] was 0.782.

For `CC(C)(c1ccc(OCC(O)CO)cc1)c1ccc(OCC(O)CCl)cc1` (configuration not stated), the “NF-kB SEAP reporter activity” value [2, 7] was 0.976 and the “NF-kB SEAP reporter activity” value [2, 8] was 1.1.

With `O=C(Nc1ccc(Cl)cc1)c1cc2ccccc2cc1OP(=O)(O)O` the “NF-kB SEAP reporter activity” value [2, 7] was 0.877 and the “NF-kB SEAP reporter activity” value [2, 8] was 1.04.

`O=C(Nc1ccc(Cl)cc1)c1cc2ccccc2cc1OP(=O)(O)O` (library stock concentration (final ~1000-fold dilution): 10 mM) was tested, and the “NF-kB SEAP reporter activity” value ([1]; agonist: LPS (TLR4) 0.1 ug/mL) was 1.08, the “NF-kB SEAP reporter activity” value [1, 4] was 0.965 and the “NF-kB SEAP reporter activity” value [1, 5] was 0.931. The “NF-kB SEAP reporter activity” value [1, 6] was 0.763.

In the case of `CCOC(=O)c1[nH]c2cc(Cl)ccc2c1C(C(=O)NC(C)(C)C)N(C=O)Cc1ccc(Cl)cc1` (configuration not stated), the “NF-kB SEAP reporter activity” value [2, 7] is reported as 0.883 and the “NF-kB SEAP reporter activity” value [2, 8] is reported as 1.5.

`CCOC(=O)c1[nH]c2cc(Cl)ccc2c1C(C(=O)NC(C)(C)C)N(C=O)Cc1ccc(Cl)cc1` (configuration not stated) (library stock concentration (final ~1000-fold dilution): 10 mM) was tested, and the “NF-kB SEAP reporter activity” value ([1]; agonist: LPS (TLR4) 0.1 ug/mL) was 2.05, the “NF-kB SEAP reporter activity” value [1, 4] was 0.873 and the “NF-kB SEAP reporter activity” value [1, 5] was 0.569. For the same molecule, the “NF-kB SEAP reporter activity” value [1, 6] was 0.348.

`CCCCN1CCCCC1C(=O)Nc1c(C)cccc1C` (configuration not stated) (library stock concentration (final ~1000-fold dilution): 10 mM) was tested, and the “NF-kB SEAP reporter activity” value ([1]; agonist: LPS (TLR4) 0.1 ug/mL) was 1.12, the “NF-kB SEAP reporter activity” value [1, 4] was 0.908 and the “NF-kB SEAP reporter activity” value [1, 5] was 0.898. The “NF-kB SEAP reporter activity” value [1, 6] was 1.01.

For `CCCCN1CCCCC1C(=O)Nc1c(C)cccc1C` (configuration not stated), the “NF-kB SEAP reporter activity” value [2, 7] was 0.941 and the “NF-kB SEAP reporter activity” value [2, 8] was 1.06.

With `CC(=O)OC1(C(C)=O)CCC2C3C=C(C)C4=CC(=O)CCC4(C)C3CCC21C` (configuration not stated) (library stock concentration (final ~1000-fold dilution): 10 mM) the “NF-kB SEAP reporter activity” value ([1]; agonist: LPS (TLR4) 0.1 ug/mL) was 0.908, the “NF-kB SEAP reporter activity” value [1, 4] was 1.22 and the “NF-kB SEAP reporter activity” value [1, 5] was 1.13. The “NF-kB SEAP reporter activity” value [1, 6] was 1.27.

In the case of `CC(=O)OC1(C(C)=O)CCC2C3C=C(C)C4=CC(=O)CCC4(C)C3CCC21C` (configuration not stated), the “NF-kB SEAP reporter activity” value [2, 7] is reported as 1.21 and the “NF-kB SEAP reporter activity” value [2, 8] is reported as 1.14.

In the case of `Cc1noc(C)c1-c1ccc(-c2cc(C(N)=O)c(NC(N)=O)s2)c(O[C@H]2CCNC2)c1`, the “NF-kB SEAP reporter activity” value [2, 7] is reported as 0.638 and the “NF-kB SEAP reporter activity” value [2, 8] is reported as 0.763.

`Cc1noc(C)c1-c1ccc(-c2cc(C(N)=O)c(NC(N)=O)s2)c(O[C@H]2CCNC2)c1` (library stock concentration (final ~1000-fold dilution): 10 mM) was tested, and the “NF-kB SEAP reporter activity” value ([1]; agonist: LPS (TLR4) 0.1 ug/mL) was 0.649, the “NF-kB SEAP reporter activity” value [1, 4] was 0.571 and the “NF-kB SEAP reporter activity” value [1, 5] was 0.32. For the same molecule, the “NF-kB SEAP reporter activity” value [1, 6] was 0.407.

In the case of `CC#CC1(O)CCC2C3CCC4=CC(=O)CCC4=C3C(c3ccc(N(C)C)cc3)CC21C` (configuration not stated), the “NF-kB SEAP reporter activity” value [2, 7] is reported as 1.07 and the “NF-kB SEAP reporter activity” value [2, 8] is reported as 1.15.

With `CC#CC1(O)CCC2C3CCC4=CC(=O)CCC4=C3C(c3ccc(N(C)C)cc3)CC21C` (configuration not stated) (library stock concentration (final ~1000-fold dilution): 10 mM) the “NF-kB SEAP reporter activity” value ([1]; agonist: LPS (TLR4) 0.1 ug/mL) was 1.02, the “NF-kB SEAP reporter activity” value [1, 4] was 0.694 and the “NF-kB SEAP reporter activity” value [1, 5] was 0.415. The “NF-kB SEAP reporter activity” value [1, 6] was 0.549.

`CCCCCCCc1ccc(CCc2cccc(O)c2C(=O)O)cc1` (library stock concentration (final ~1000-fold dilution): 10 mM) was tested, and the “NF-kB SEAP reporter activity” value ([3]; agonist: LPS (TLR4) 0.1 ug/mL) was 0.6, the “NF-kB SEAP reporter activity” value [3, 4] was 0.944 and the “NF-kB SEAP reporter activity” value [3, 5] was 0.826. The “NF-kB SEAP reporter activity” value [3, 6] was 0.663.

`CCCCCCCc1ccc(CCc2cccc(O)c2C(=O)O)cc1` was tested, and the “NF-kB SEAP reporter activity” value [2, 9] was 1.19 and the “NF-kB SEAP reporter activity” value [2, 10] was 0.916.
